# Lines with a small IC50 respond at low doses; a limit (>, <) means that the fit lies beyond the doses tested. AUC is the area under the same curve over the 256-fold range up to the top dose, as a fraction; it is 1 without any effect and falls as sensitivity rises. For part of these data: The top dose, if marked as inferred, is not printed in the source and was worked back from the curve model. For part of these data: Where an entry number is given, a second screen of the drug exists; the two often differ.
# What was measured:
# Assay in all cases: Viability of human cancer cell lines after 72 h of drug (GDSC screen)
# AR-42 = compound: CC(C)[C@H](C(=O)Nc1ccc(C(=O)NO)cc1)c1ccccc1 [AR-42]; conditions: top dose 5.12 µM; top dose inferred
# Method: (§1)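 Human cancer cell lines in 384-well plates, medium with 10% serum, drug for 72 h over a 256-fold dose range (nine 2-fold or five 4-fold steps up to the top dose). Adherent lines were fixed and stained with the nucleic acid dye Syto60, suspension lines read with resazurin; signal relative to control wells, capped at 0 and 100%. One two-parameter sigmoid per drug and line, fitted in a mixed model over all curves with the slope shared within a line.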
# GDC0941 = compound: CS(=O)(=O)N1CCN(Cc2cc3nc(-c4cccc5[nH]ncc45)nc(N4CCOCC4)c3s2)CC1 [GDC0941]; conditions: top dose 4 µM; screen: GDSC drug entry 1527; top dose inferred
# Method: as §1
# Pazopanib = compound: Cc1ccc(Nc2nccc(N(C)c3ccc4c(C)n(C)nc4c3)n2)cc1S(N)(=O)=O [Pazopanib]; conditions: top dose 8 µM
# Method: as §1
# SB 216763 = compound: Cn1cc(C2=C(c3ccc(Cl)cc3Cl)C(=O)NC2=O)c2ccccc21 [SB 216763]; conditions: top dose 10 µM; top dose inferred
# Method: as §1
# CEP-701 = compound: C[C@]12O[C@H](C[C@]1(O)CO)n1c3ccccc3c3c4c(c5c6ccccc6n2c5c31)CNC4=O [CEP-701]; conditions: top dose 2 µM; top dose inferred
# Method: as §1
Cell Line,AUC (AR-42),IC50 (AR-42) [µM],AUC (GDC0941),IC50 (GDC0941) [µM],AUC (Pazopanib),IC50 (Pazopanib) [µM],AUC (SB 216763),IC50 (SB 216763) [µM],AUC (CEP-701),IC50 (CEP-701) [µM]
"BFTC-905 (bladder, adherent)",0.671,0.888,0.712,0.898,0.973,> 8,0.924,> 10,–,–
"JHOS-4 (ovary, adherent)",–,–,–,–,–,–,0.98,> 10,0.756,0.979
"NCI-H835 (lung carcinoid, suspension)",–,–,0.91,> 4,–,–,0.989,> 10,0.924,> 2
"RCH-ACV (B-cell leukaemia, suspension)",–,–,0.43,0.167,–,–,0.99,> 10,0.314,0.0419
"RH-18 (rhabdomyosarcoma, adherent)",–,–,0.794,2.16,–,–,0.984,> 10,0.881,> 2
"Jurkat (T-cell leukaemia, suspension)",–,–,0.889,3.13,–,–,0.993,> 10,0.679,0.357
"U-266 (myeloma, semi-adherent)",–,–,–,–,–,–,0.894,> 10,–,–
"NCI-H929 (myeloma, suspension)",–,–,–,–,–,–,0.991,> 10,0.521,0.142
"SK-MEL-31 (melanoma, adherent)",–,–,0.869,> 4,–,–,0.981,> 10,0.82,1.59
"COLO-205 (large intestine, suspension)",0.556,0.453,0.726,1.08,0.979,> 8,0.976,> 10,–,–
"NCI-H508 (large intestine, semi-adherent)",–,–,0.661,0.953,–,–,0.954,> 10,0.78,1.53
"MOLM-16 (acute myeloid leukaemia, suspension)",–,–,0.445,0.181,–,–,0.888,8.93,0.086,< 0.00781
"CML-T1 (chronic myeloid leukaemia, suspension)",–,–,0.977,> 4,–,–,0.988,> 10,0.579,0.197
"CL-34 (large intestine, adherent)",–,–,–,–,–,–,0.985,> 10,0.907,> 2
"A375 (melanoma, adherent)",0.524,0.367,–,–,–,–,0.94,> 10,–,–
"SUP-B8 (B-cell leukaemia, suspension)",–,–,0.987,> 4,–,–,0.989,> 10,0.239,0.0221
"IGROV-1 (ovary, adherent)",–,–,0.612,0.588,–,–,0.967,> 10,0.699,0.596
"KATOIII (stomach, semi-adherent)",–,–,–,–,–,–,0.969,> 10,0.543,0.162

Cell Line,AUC (AR-42),IC50 (AR-42) [µM],AUC (GDC0941),IC50 (GDC0941) [µM],AUC (Pazopanib),IC50 (Pazopanib) [µM],AUC (SB 216763),IC50 (SB 216763) [µM],AUC (CEP-701),IC50 (CEP-701) [µM]
"MM1S (myeloma, suspension)",–,–,–,–,–,–,0.958,> 10,0.606,0.24
"TOV-21G (ovary, adherent)",0.816,3.15,0.923,> 4,0.983,> 8,–,–,0.242,0.0207
"LB373-MEL-D (melanoma, adherent)",0.57,0.494,0.935,> 4,0.897,> 8,–,–,0.909,> 2
"MDA-MB-330 (breast, adherent)",0.516,0.355,0.752,1.49,0.939,> 8,–,–,0.785,0.984
"JEKO-1 (B-cell lymphoma, suspension)",–,–,–,–,–,–,0.987,> 10,0.318,0.0396
"Hs939-T (melanoma, adherent)",0.736,1.63,0.801,2.16,0.944,> 8,–,–,0.806,1.14
"LNZTA3WT4 (glioma, adherent)",0.686,1.05,0.889,> 4,0.94,> 8,–,–,0.596,0.228
"RT4 (bladder, adherent)",0.348,0.119,0.986,> 4,0.876,> 8,–,–,0.885,> 2
"Hs766T (pancreas, adherent)",0.779,2.82,0.92,> 4,0.951,> 8,–,–,0.669,0.432
"H2461 (mesothelioma, adherent)",0.704,1.41,0.76,1.74,0.864,> 8,–,–,0.925,> 2
"MOG-G-UVW (glioma, adherent)",0.472,0.27,0.747,1.25,0.854,6.05,–,–,0.488,0.116
"KARPAS-1106P (B-cell lymphoma, suspension)",–,–,0.896,3.38,–,–,0.993,> 10,0.328,0.0457
"NCI-H1105 (small cell lung carcinoma, suspension)",–,–,0.968,> 4,–,–,0.989,> 10,0.744,0.534
"OCI-LY7 (B-cell lymphoma, suspension)",–,–,–,–,–,–,0.98,> 10,0.148,0.017
"KYSE-450 (oesophagus, adherent)",0.645,0.787,0.773,1.48,0.965,> 8,–,–,0.861,1.54
"HCC1937 (breast, adherent)",0.707,1.35,0.943,> 4,0.958,> 8,–,–,0.852,1.93
"ZR-75-30 (breast, adherent)",–,–,–,–,–,–,0.941,> 10,0.905,> 2
"NCI-H1781 (lung adenocarcinoma, adherent)",0.823,3.02,0.885,> 4,0.954,> 8,–,–,0.839,1.37

# — the supplement of paper PMC4967469
